In PubChem BioAssay AID938 (National Center for Advancing Translational Sciences (NCATS), 2007):
The campaign covered roughly 73,000 compounds. About 1,800 (2.5%) were called active. The shares of active, inactive and inconclusive entries below differ from those in the screen. The call rests on the fitted dose curve; in most records, active means well fitted activation curve with a large enough effect; inconclusive means small, poorly fitted or top-dose-only effect; inactive means no such curve, though single readings can be large or run the other way. Potencies of inconclusive entries are left out as doubtful fits.

Experiment: qHTS Assay for Agonists of the Thyroid Stimulating Hormone Receptor: Activators of Intracellular cAMP Concentrations in Parental HEK 293; further: nearly all actives have a fitted effect of over 55% in size; on activation: % of control where 0% means no effect
Details: parental HEK293 CNG cAMP sensor, membrane potential fluorescence; activation: at 57.1 µM (top of the series) unless noted
Procedure, shortened: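 Counterscreen for endogenous-receptor signalling: CNG-channel HEK 293 cells report cAMP rise by membrane depolarization. After 60 min dye equilibration with 100 uM RO 20-1724, compounds incubated 30 min before bottom-read fluorescence at 590 nm.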
Potency means the concentration at half of the fitted maximal effect; tags describe the fitted curve by direction and shape.

Row | Structure (SMILES) | Potency | activation
1 | CCN(CC)S(=O)(=O)c1ccc(C(=O)Nc2ccc3c(c2)OCCO3)cc1 | inactive | 
2 | C=CCn1c(=O)c2c(C)c(C)sc2n2c(Nc3ccccc3)nnc12 | inactive | 
3 | N=c1c(S(=O)(=O)c2ccccc2)cc2c(=O)n3ccccc3nc2n1Cc1ccco1 | inactive | 
4 | O=S(=O)(Cc1ccccc1)N1CCc2ccccc21 | inconclusive [activator, single point] | 
5 | Cc1onc(-c2c(F)cccc2Cl)c1C(=O)N[C@@H]1C(=O)N2[C@H]1SC(C)(C)[C@H]2C(=O)O |  | inactive: -8.85% [at 11.4 µM]
6 | O=C(c1cccc(F)c1)N1CCC2(CC1)CCN(C(c1ccccc1)c1ccccc1)CC2 | inconclusive [activator, partial curve, poor fit] | 
7 | CCOCCCNC(=O)C1CCCN(S(=O)(=O)CC)C1 (configuration not stated) | inconclusive [activator, single point] | 
8 | c1ccc(CSc2nnc(-c3cccs3)o2)cc1 | inconclusive [activator, single point] | 
9 | O=C(CSC1=NCCN1)Nc1ccccc1 |  | inactive: -1.83% [at 11.4 µM]
10 | C=CCN1C(=O)N(/C=C/C)c2cccc3cccc1c23 | inconclusive [activator, partial curve] | 
11 | COc1ccc(N(CC(=O)Nc2ccc3c(c2)OCO3)S(=O)(=O)c2c(C)nn(C)c2C)cc1 | inactive | 
12 | Cc1ccccc1OCCN1C(=O)c2ccccc2C1=O | inconclusive [activator, single point] | 
13 | N[C@H](CCCC(=O)O)C(=O)O | inactive | 
14 | CCCCn1c(SCc2ccc(Cl)cc2)nc2c1c(=O)[nH]c(=O)n2C | inconclusive [activator, single point] | 
15 | CCOC(=O)N1CCC(NC(=O)C2CCCN(Cc3nc(-c4cccc(Cl)c4)oc3C)C2)CC1 (configuration not stated) | inconclusive [activator, partial curve] | 
16 | Nn1c(SCC(=O)Nc2ccccc2F)nc2ccccc2c1=O | inconclusive [activator, single point] | 
17 | O=C(CSc1nnc(-c2cnccn2)n1Cc1ccco1)c1ccc(Cl)cc1 | inconclusive [activator, partial curve] | 
18 | O=[N+]([O-])c1ccc2ncccc2c1CCc1c([N+](=O)[O-])ccc2ncccc12 | inconclusive [activator, single point] | 
19 | O=C1c2ccccc2C(=O)c2c1ccc(C(=O)O)c2-c1ccc2ccccc2c1 | inconclusive [activator, single point] | 
20 | CC1(C)N=C(N)N=C(N)N1c1cccc(OCc2cccc([N+](=O)[O-])c2)c1 |  | inactive: -3.11% [at 11.4 µM]
21 | CCCCCn1c(CN2CCN(c3cccc(Cl)c3)CC2)nc2c1c(=O)[nH]c(=O)n2C | inconclusive [activator, single point] | 
22 | CCOC(=O)C1C(C)N=C2SCC(=O)N2C1c1cccc(Br)c1 (configuration not stated) | inconclusive [activator, partial curve] | 
23 | Cc1nc2cnc(OCc3ccccc3)nc2n(Cc2ccc(F)cc2)c1=O | inconclusive [activator, full curve] | 
24 | Cc1cc(C)cc(-c2nnc(SCC(=O)NCc3cccs3)o2)c1 | inconclusive [activator, single point] | 

Row | Structure (SMILES) | Potency | activation
25 | COc1ccc(OC)c(-n2c(SCC(C)=O)nnc2-c2cccc(S(=O)(=O)N(C)C)c2)c1 | inconclusive [activator, single point] | 
26 | Cc1ccc(-c2nnc(SCC(=O)Nc3ccc4c(c3)OCCO4)n2N)cc1 | inactive | 
27 | Fc1cccc(Cl)c1Cn1nnc2c(NCc3ccccn3)ncnc21 | inconclusive [activator, single point] | 
28 | C=CCn1cnc2c(c1=O)c1nc3ccccc3nc1n2/N=C/c1ccccn1 | inactive | 
29 | CCOc1ccccc1Nc1nc(N)nc(CSc2nccc(C)n2)n1 | inconclusive [activator, partial curve] | 
30 | O=C1NC(=O)C2(CCc3ccccc32)N1 (configuration not stated) | inconclusive [activator, partial curve, poor fit] | 
31 | CC(=O)NC(CCS(C)(=O)=O)C(=O)Nc1cccc(C)c1 (configuration not stated) | active: 3.16 µM | 
32 | Cc1ccc(CN(CC2CCCO2)C(=O)CN2C(=O)C(C(C)C)Oc3ccccc32)o1 (configuration not stated) | inconclusive [activator, partial curve] | 
33 | Cn1c(=O)c2c(nc(SCC(=O)Nc3ccccc3N3CCCCC3)n2C)n(C)c1=O | inconclusive [activator, partial curve, poor fit] | 
34 | CCOC(=O)C1=C(O)C(=O)N(c2ccc(S(N)(=O)=O)cc2)C1c1ccccc1 (configuration not stated) | inconclusive [activator, single point] | 
35 | COc1ccc(C(c2nnnn2Cc2cccs2)N2CCN(c3ccccc3)CC2)cc1OC (configuration not stated) | inconclusive [activator, partial curve] | 
36 | COC(=O)c1nnn(-c2nonc2N)c1CN1CCc2ccccc21 | inactive | 
37 | Cc1cc(NC(=O)Cc2cccs2)no1 | inactive | 
38 | COc1cccc(-c2cc(=O)c3ccccc3o2)c1N | inconclusive [activator, single point] | 
39 | COc1cc(C)nc(N2CCC(C(=O)NC3CCCCC3)CC2)n1 | inconclusive [activator, single point] | 
40 | CCSc1nc2ccccc2n1Cc1nc(N)nc(N(C)C)n1 | inactive | 
41 | CC1CCN(C(=O)COC(=O)c2cc3ccccc3cc2O)CC1 | active: 0.199 µM | 
42 | Cc1cc(C)c2nc(-c3ccccn3)cc(C(=O)Nc3cc(C)on3)c2c1 | active: 15.8 µM | 
43 | O=C(Nc1ccccc1C(=O)OCc1nnc(-c2ccccc2)o1)c1ccco1 | inconclusive [activator, partial curve] | 
44 | N#Cc1ccc(CSc2nnc(-c3ccccn3)n2-c2ccc(Cl)cc2)cc1 | inconclusive [activator, partial curve] | 
45 | Cn1c(=O)c(CCc2ccccc2)nc2cncnc21 | inconclusive [activator, full curve, poor fit] | 
46 | CCCC(C)C(=O)NCc1ccccc1OC (configuration not stated) | inconclusive [activator, partial curve] | 
47 | O=C(Oc1ccccc1)N1CCC2(CC1)CN(c1ncccn1)C2 | inactive | 
48 | Cc1ccc2c(c1)N(CC(=O)NC1CCCCC1C)C(=O)CO2 (configuration not stated) | inconclusive [activator, partial curve] | 

Row | Structure (SMILES) | Potency | activation
49 | COc1ncc2nc(-c3cc(F)cc(F)c3)c(=O)n(CCc3ccccc3)c2n1 | inactive | 
50 | CCCCCC1=C2CNC(C)(C(=O)OC)C=C2C(C)C1=O (configuration not stated) | inactive | 
51 | O=C(c1c(O)c2ccc(Cl)cc2[nH]c1=O)C1CC1 | inactive | 
52 | COc1ccccc1N1CCN(S(=O)(=O)c2cn(C)c(=O)n(C)c2=O)CC1 | inconclusive [activator, single point] | 
53 | Cc1cc(C)nc(N2CCCC(C(=O)NCCc3ccccc3F)C2)n1 (configuration not stated) | inactive | 
54 | COc1ccccc1C(c1nnnn1CCc1ccccc1)N1CCN(c2ccccc2)CC1 (configuration not stated) | inconclusive [activator, partial curve, poor fit] | 
55 | CCCCCOc1ccc(C(=O)N(Cc2ccco2)C2CCS(=O)(=O)C2)cc1 (configuration not stated) | active: 25.1 µM | 
56 | O=C(CCN1C(=O)c2ccccc2C1=O)Nc1ccc(-c2cn3ccsc3n2)cc1 | inconclusive [activator, single point] | 
57 | Cc1ccccc1C(OCC(O)CN1CCCCC1CCO)c1ccccc1 (configuration not stated) | inconclusive [activator, full curve, poor fit] | 
58 | COc1ccc(-c2nc3cnc(Oc4cccc(Cl)c4)nc3n(C[C@H]3CCCO3)c2=O)cc1 | inconclusive [activator, partial curve] | 
59 | Cc1oc(-c2ccccc2F)nc1CS(=O)(=O)CC(=O)NCc1ccco1 | inconclusive [activator, single point] | 
60 | COc1ccc(-n2c(=O)c(-c3cc(F)cc(F)c3)nc3cncnc32)cc1 | inconclusive [activator, single point] | 
61 | Cc1noc(C)c1-c1ccc2ncnc(NCc3ccccc3)c2c1 | inactive | 
62 | COC(=O)c1ccccc1NC(=O)COc1ccccc1 | active: 31.6 µM | 
63 | CN(C)C(=O)c1ccc(-c2cc(Nc3ccccc3)ncn2)cc1 | inactive | 
64 | CCOC(=O)N1CCN(c2nc(N(c3ccccc3)c3ccccc3)nc(-n3ccnc3)n2)CC1 | inconclusive [activator, partial curve] | 
65 | Cn1c(=O)n(Cc2ccccc2F)c2ccccc21 | inconclusive [activator, partial curve] | 
66 | Cc1cccc(C)c1-n1nnnc1SCSc1nnnn1-c1c(C)cccc1C | active: 15.8 µM | 
67 | CN(C)Cc1ccccc1-c1nccc(NCc2cccs2)n1 | active: 25.1 µM | 
68 | CCCN(CCC)S(=O)(=O)c1ccc(C(=O)Nc2nnc(-c3cccc(OC)c3)o2)cc1 | inactive | 
69 | Cc1nn(Cc2ccccc2)c(C)c1C(=O)OCC(=O)c1cc(C)n(C2CC2)c1C | inconclusive [activator, single point] | 
70 | CCC(=O)N1CCc2cc(OC)c(OC)cc2C1COc1ccc(C(=O)OC)cc1 (configuration not stated) | inconclusive [activator, single point] | 
71 | CN(Cc1ccco1)c1nc(-c2ccoc2)nc2ccccc12 | active: 15.8 µM | 
72 | O=C1c2[nH]nc(-c3ccccc3O)c2C(c2ccc(F)cc2)N1Cc1ccco1 (configuration not stated) | inconclusive [activator, single point] | 
